Measurements from patent US9718818B2, “Compounds inhibiting leucine-rich repeat kinase enzyme activity” (MERCK SHARP & DOHME CORP., priority 2013, dated 2017).

molecular target: LRRK2 (G2019S mutation, GST-LRRK2 (amino acids 970-2527)) (Homo sapiens, UniProt Q5S007, G2019S); assay: LRRK2 Km ATP LanthaScreen Assay; conditions: IC50 (nM), mean IC50 of several tests, fluorescein LRRKtide substrate, TR-FRET

SMILES	IC50 [nM]
CC(C)Oc1cc2c(-c3cc(N4CC5CCC(C4)O5)ncn3)n[nH]c2cn1 [Example U2]	194
COc1ccc2[nH]nc(-c3ccnc(N4CCOCC4)c3)c2n1 [Example I1]	42.9
[2H]C([2H])([2H])C([2H])(Oc1cc2c(-c3ccnc(N4CCOCC4)c3)n[nH]c2cn1)C([2H])([2H])[2H] [Example G5]	26.7
Clc1ncc2[nH]nc(-c3ccnc(N4CCOCC4)c3)c2n1 [Example H1]	1400

The next lines start with the values.

IC50 [nM]	SMILES
7.3	COC1CN(c2cc(-c3n[nH]c4cnc(-c5cccnc5)cc34)ccn2)C1 [Example B1]
49	FC(F)Oc1cc2c(-c3ccnc(N4CCOCC4)c3)n[nH]c2cn1 [Example G7]
87	CC(C)Oc1cc2c(-c3ccnc(N4CCCC4=O)c3)n[nH]c2cn1 [Example T1]
0.65	COc1ccncc1-c1cc2c(-c3ccnc(N4CCC4)c3)n[nH]c2cn1 [Example B1.6]
1.2	CO[C@@H]1CCN(c2cc(-c3n[nH]c4cnc(-c5cccnc5)cc34)ccn2)C1 [Example B2.2]
272	c1cc(-c2n[nH]c3cnc(N4CCCC4)cc23)cc(N2CCOCC2)n1 [Example S2]
81	CC(C)Nc1cc2c(-c3ccnc(N4CCOCC4)c3)n[nH]c2cn1 [Example S1]

same assay, conditions: LRRK2 IC50 (nM), mean IC50 of several tests, fluorescein LRRKtide substrate, TR-FRET

SMILES	IC50 [nM]
CC(C)Oc1cc2c(-c3cc(N4CCC(n5cncn5)CC4)ncn3)n[nH]c2cn1 [Example N14]	41
CC(C)Oc1cc2c(-c3ccnc(N4CCc5nc(C6CC6)oc5C4)c3)n[nH]c2cn1 [Example J34]	55
CC(C)Oc1cc2c(-c3ccnc(N4CCN(c5nnc(C6CC6)o5)CC4)c3)n[nH]c2cn1 [Example J35]	60
Cc1ccn(CC(=O)N2CCN(c3cc(-c4n[nH]c5cnc(OC(C)C)cc45)ccn3)CC2)n1 [Example L7]	61.4
CC(C)Oc1cc2c(-c3ccnc(N4CCN(C(=O)C5COCCO5)CC4)c3)n[nH]c2cn1 (stereo not drawn) [Example L9]	76.3
CC(C)Oc1cc2c(-c3ccnc(N4CCN(CC5CCOC5)CC4)c3)n[nH]c2cn1 (stereo not drawn) [Example M6]	30
CC(C)Oc1cc2c(-c3cc(N4CC[S+]([O-])CC4)ncn3)n[nH]c2cn1 [Example N17]	129
CC(C)Oc1cc2c(-c3cc(N4CCCCC4)ncn3)n[nH]c2cn1 [Example N3]	32
CC(C)Oc1cc2c(-c3ccnc(N4CC(O)(C(C)C)C4)c3)n[nH]c2cn1 [Example J38]	56
CC(C)Oc1cc2c(-c3cc(N4CC[C@@H](F)C4)ncn3)n[nH]c2cn1 [Example N25]	365
CC(C)Oc1cc2c(-c3cc(N4CC(F)(F)C4)ncn3)n[nH]c2cn1 [Example N19]	111
CC(C)Oc1cc2c(-c3ccnc(N4CCN(CC(F)(F)F)CC4)c3)n[nH]c2cn1 [Example J16]	40
COC(C)CN(C)c1cc(-c2n[nH]c3cnc(OC(C)C)cc23)ncn1 (stereo not drawn) [Example N24]	62

Other lines, results leading:

IC50 [nM]	SMILES
26	CC(C)Oc1cc2c(-c3ccnc(N4CC[C@H](F)C4)c3)n[nH]c2cn1 [Example J42]
81	CC(C)Oc1cc2c(-c3ccnc(N4CCn5cnnc5C4)c3)n[nH]c2cn1 [Example J31]
43	CC(C)Oc1cc2c(-c3ccnc(N4CCN(S(=O)(=O)Cc5cccnc5)CC4)c3)n[nH]c2cn1 [Example K10]
27	CC(C)Oc1cc2c(-c3ccnc(N4CCN(Cc5cnn6ccccc56)CC4)c3)n[nH]c2cn1 [Example M7]
102	CCc1nnc2n1CCN(c1cc(-c3n[nH]c4cnc(OC(C)C)cc34)ccn1)C2 [Example J29]
82	CC(C)Oc1cc2c(-c3ccnc(N4CCN(CC5CC5)CC4)c3)n[nH]c2cn1 [Example J28]
44	CC(C)Oc1cc2c(-c3ccnc(N4CCN(C)C(=O)C4)c3)n[nH]c2cn1 [Example J15]
51	COC1CCCN(c2cc(-c3n[nH]c4cnc(OC(C)C)cc34)ccn2)C1 (stereo not drawn) [Example J9]
69	CC(C)Oc1cc2c(-c3cc(N4CCC4)ncn3)n[nH]c2cn1 [Example N4]
